Data reported in the RNAGym collection of RNA variant scans (doi:10.7554/elife.90254).
The source gives no read counts; variants with many changes may rest on few reads.

B1: LINE1-mini (parent)
chain: GGCAGAGCUCAACACAGCGUGGCAAAGUGGCUGUGGCUAGACUGCC

Variants of: B1
Experiment: self-cleavage, relative activity (ratio to wild type); higher = more cleavage; in vitro, sequencing; the parent is a self-cleaving ribozyme
Variant C3A C8G U43A has a self-cleavage of 1.33.
C3A C13A G19U U32G A39C C42A showed a self-cleavage of 0.14.
In the case of C3A C8U A16C G30U U32A, the self-cleavage is reported as 0.38.
C3A C8A G44A gave a self-cleavage of 0.59.
In the case of C3A C8A G33U, the self-cleavage is reported as 0.32.
In the case of C3A A16U G17A A39G C42A U43G, the self-cleavage is reported as 0.07.
In the case of C3A A6U A14C G21A, the self-cleavage is reported as 0.12.
For C3A C13A A26U G27A U38G, the self-cleavage was 0.06.
For C3A A4G C8U G21A, the self-cleavage was 0.48.
C3A A16U G30C G35A showed a self-cleavage of 0.07.
In the case of C3A A6C C15A U43C, the self-cleavage is reported as 0.08.
With C3A C10G G21U the self-cleavage was 0.08.
For C3A C13A A16C C46U, the self-cleavage was 0.
C3A C23U U34A showed a self-cleavage of 0.11.
C3A A14U A16G G40A gave a self-cleavage of 0.13.
Variant C3A C10A A16U has a self-cleavage of 0.07.
With C3A C10A U20G G22U the self-cleavage was 0.07.
Variant C3A A12C C37A has a self-cleavage of 0.15.
Work on C3A A16U C23A G30A G35C yielded a self-cleavage of 0.16.
For C3A C15U G22U U43A, the self-cleavage was 0.08.
In the case of C3A C18U C37G, the self-cleavage is reported as 0.08.
With C3A C13U C18A G19C U32A U34C the self-cleavage was 0.06.
Work on C3A A26U G33U yielded a self-cleavage of 0.18.
Variant C3A A4C U32C U38C C42G has a self-cleavage of 0.11.
In the case of C3A C13U U20G U43G, the self-cleavage is reported as 1.53.
Variant C3A A16U U34G G36U has a self-cleavage of 0.08.
With C3A A14U C18G U43A the self-cleavage was 0.04.
With C3A A11G A25U G36U the self-cleavage was 0.
In the case of C3A A6U A11C G19C G27C U28A, the self-cleavage is reported as 0.01.
For C3A C10G C23A G36C U38C G40C, the self-cleavage was 0.01.
For C3A C8U A25C U38C C46G, the self-cleavage was 0.12.
C3A C10U A41C gave a self-cleavage of 0.13.
With C3A C8U G29A U32C G36U the self-cleavage was 0.45.
C3A C15G G19U C31A gave a self-cleavage of 0.01.
With C3A C15U G17A G21U the self-cleavage was 0.07.
C3A C8U C42A showed a self-cleavage of 0.23.
C3A A6C A14G C31A gave a self-cleavage of 0.02.
In the case of C3A C8G A11G A14G G33U G40C, the self-cleavage is reported as 0.01.
Variant C3A C15U G27C has a self-cleavage of 0.2.
C3A C18A G40U gave a self-cleavage of 0.05.
Variant C3A A6U C8G G30A C42G has a self-cleavage of 0.16.
In the case of C3A A4C G19U A39U, the self-cleavage is reported as 0.52.
With C3A C10A C45U the self-cleavage was 0.03.
With C3A C18U G19A the self-cleavage was 0.34.
C3A C15U C46A showed a self-cleavage of 0.34.
In the case of C3A C31A C46U, the self-cleavage is reported as 0.08.
Work on C3A A4U G21U U28A C31A A39U yielded a self-cleavage of 0.21.
With C3A C18U U20G A26U U38C the self-cleavage was 0.11.
In the case of C3A A11C C15U U20A, the self-cleavage is reported as 0.03.
C3A C15A G36A showed a self-cleavage of 0.24.
C3A A6C C15A G30U C31G A39G gave a self-cleavage of 0.15.
Variant C3A C10G C37A has a self-cleavage of 0.02.
With C3A A4G G17A the self-cleavage was 0.12.
In the case of C3A C13G C31G, the self-cleavage is reported as 0.12.
C3A A4C G19C A24U C45G gave a self-cleavage of 0.07.
In the case of C3A C15A G21U A25U A26G C31G G33C, the self-cleavage is reported as 0.11.
In the case of C3A C10A C13A U32G, the self-cleavage is reported as 0.06.
With C3A A4U C8A G22C G36U the self-cleavage was 1.02.
C3A C8A A14C showed a self-cleavage of 0.12.
In the case of C3A C23U A25G, the self-cleavage is reported as 1.32.
In the case of C3A C8U G19C, the self-cleavage is reported as 0.15.
For C3A C8G C23A G35A A41C, the self-cleavage was 0.05.
In the case of C3A C13G G35A C37U A41C C46G, the self-cleavage is reported as 0.11.
C3A C8U C37U C42A gave a self-cleavage of 0.03.
Work on C3A A6G A16U G36U yielded a self-cleavage of 0.06.
In the case of C3A C10A G21U G29A U32G, the self-cleavage is reported as 0.05.
Variant C3A C10G A24C G35U has a self-cleavage of 0.03.
In the case of C3A C10G C37A C45U C46A, the self-cleavage is reported as 0.
Variant C3A A4U G22U has a self-cleavage of 0.66.
C3A C15G G19U A26G A41U gave a self-cleavage of 0.04.
In the case of C3A A16U U32A G36A, the self-cleavage is reported as 0.14.
C3A C15G G30U G44C showed a self-cleavage of 0.06.
Variant C3A A14G G36U A39U has a self-cleavage of 0.01.
C3A A4U C42A showed a self-cleavage of 0.12.
Variant C3A A6C G7A G21C U34G has a self-cleavage of 0.05.
Variant C3A A4G A14G C15U U28G has a self-cleavage of 0.02.
With C3A C10A A12U G22A G33C U34C G40C the self-cleavage was 0.02.
Work on C3A A6U U38G yielded a self-cleavage of 0.09.
In the case of C3A A11C A26U C31A, the self-cleavage is reported as 0.02.
Work on C3A A12G G29C U32C yielded a self-cleavage of 0.85.
With C3A A25G A26U G33U the self-cleavage was 0.15.
For C3A A16G C23U C37U G40C C45U, the self-cleavage was 0.03.
For C3A C8U G22U C45G, the self-cleavage was 0.43.
With C3A C15A G36U A39G the self-cleavage was 0.39.
C3A C10A A39U U43A gave a self-cleavage of 0.04.
In the case of C3A C18A G33A G40C, the self-cleavage is reported as 0.09.
For C3A C15A G19U A41G, the self-cleavage was 0.22.
With C3A A6G C18U C31A U34G the self-cleavage was 0.02.
C3A A24U G29U gave a self-cleavage of 0.1.
C3A A6G G27C U43A gave a self-cleavage of 0.06.
Variant C3A C13A G33C A39U C45A has a self-cleavage of 0.05.
Work on C3A C13G U28A G33A C37U G40A A41G yielded a self-cleavage of 0.04.
In the case of C3A A4G C8A A16U C18A C23G, the self-cleavage is reported as 1.16.
Work on C3A C13A A24U C42G yielded a self-cleavage of 0.06.
Work on C3A C8A C13A U20C A41C yielded a self-cleavage of 0.19.
C3A C13A G29A gave a self-cleavage of 1.33.
Variant C3A C13G U38G has a self-cleavage of 0.02.
C3A A12U C15U G30U C37U C45A showed a self-cleavage of 0.07.
Work on C3A A6C G7U A16C A25U C37G U38C yielded a self-cleavage of 0.13.
Work on C3A A24G U28A C45G yielded a self-cleavage of 0.34.
In the case of C3A C10U U38A A39G, the self-cleavage is reported as 0.15.
In the case of C3A A12G G27A, the self-cleavage is reported as 0.25.
In the case of C3A C23G A25G A26G C37A, the self-cleavage is reported as 0.2.
For C3A A14G G30A, the self-cleavage was 1.07.
Work on C3A A16U A25C G40C C46A yielded a self-cleavage of 0.03.
Variant C3A A6G C23A has a self-cleavage of 0.11.
For C3A C10U A12U C42G, the self-cleavage was 0.02.
With C3A A6U C13U C18G A24G the self-cleavage was 0.19.
Variant C3A A26U C37U G44A C46G has a self-cleavage of 0.06.
C3A A16U G40C showed a self-cleavage of 0.13.
For C3A A4G C18G G19U, the self-cleavage was 0.02.
With C3A C18A G21U G27A U28G G33A G36C the self-cleavage was 0.01.
Variant C3A C10A A12U G33A G35A has a self-cleavage of 0.04.
With C3A C13U C23U the self-cleavage was 1.29.
In the case of C3A A16C G21A C23G A39G U43A, the self-cleavage is reported as 0.1.
With C3A A11U G19U U43C C45G the self-cleavage was 0.01.
Work on C3A A14C G21U C31U U32A yielded a self-cleavage of 0.13.
Variant C3A A14U U20C C23A U43G has a self-cleavage of 0.07.
Work on C3A A16C U32A U34A yielded a self-cleavage of 0.08.
C3A A6C G21A gave a self-cleavage of 1.32.
Work on C3A A26C G35A G36C G40A yielded a self-cleavage of 0.1.
Work on C3A C23U G40C yielded a self-cleavage of 0.07.
In the case of C3A A25U G30A C42U, the self-cleavage is reported as 0.18.
C3A C13A C15U U20A G30U gave a self-cleavage of 0.25.
Work on C3A A6G A25C G40A G44U C46U yielded a self-cleavage of 0.11.
C3A A4U C10U U20A showed a self-cleavage of 0.11.
With C3A C13U U20A G22A G30A U38A A39U C42G the self-cleavage was 0.13.
In the case of C3A A4U G36A C37A, the self-cleavage is reported as 0.39.
Work on C3A A24G A26G A41C yielded a self-cleavage of 0.13.
Work on C3A A4U C10A A25C G33A G36C C42U G44C yielded a self-cleavage of 0.01.
C3A A12G U32A showed a self-cleavage of 0.64.
For C3A A16C G22A C23A G40A U43C, the self-cleavage was 0.04.
C3A A12U A14C A24U G44C gave a self-cleavage of 0.06.
Variant C3A C10U C23U U38C has a self-cleavage of 0.06.
For C3A C10A A11U A12G C46A, the self-cleavage was 0.01.
With C3A C8U U20G G36C C37U the self-cleavage was 0.05.
C3A C18U A39C C45U showed a self-cleavage of 0.21.
With C3A C13G C15G A25C C37G the self-cleavage was 0.07.
In the case of C3A A11G G17C U43C, the self-cleavage is reported as 0.03.
With C3A C8G U9G C18A A25U G44A the self-cleavage was 0.02.
With C3A A11C G21U G27A G33U the self-cleavage was 0.02.
In the case of C3A C18U G40U U43C G44A, the self-cleavage is reported as 0.16.
C3A A41U C45A showed a self-cleavage of 0.19.
In the case of C3A C10A A14C U20A G44U, the self-cleavage is reported as 0.05.
For C3A C18G U20C G40U, the self-cleavage was 0.07.
Variant C3A A4C U20C has a self-cleavage of 0.24.
In the case of C3A A6U C10A G21A, the self-cleavage is reported as 0.03.
Work on C3A A12U A24C G33C yielded a self-cleavage of 0.09.
C3A A11U G44C gave a self-cleavage of 0.04.
For C3A A11G G19A U38C G40C, the self-cleavage was 0.03.
With C3A C8G G30A U38G the self-cleavage was 0.02.
In the case of C3A A12C G27A, the self-cleavage is reported as 0.05.
For C3A A6G A12C, the self-cleavage was 0.02.
With C3A C18A C37G U38G U43G C45A the self-cleavage was 0.02.
Work on C3A C10A G29A yielded a self-cleavage of 0.03.
Work on C3A C15G G27U yielded a self-cleavage of 0.08.
For C3A A26C U32C U34C C46G, the self-cleavage was 0.1.
For C3A C8A A26G G44U, the self-cleavage was 0.37.
With C3A A12C C18A C23A A39U A41C the self-cleavage was 0.01.
Work on C3A C10G G19C G29A yielded a self-cleavage of 0.04.
In the case of C3A A11C G29U, the self-cleavage is reported as 0.13.
C3A C23U A25U C37U C45U showed a self-cleavage of 0.07.
C3A A39G A41G showed a self-cleavage of 0.02.
With C3A C13G G19C G22A G30A G35C the self-cleavage was 0.21.
Work on C3A C18G A25U U38A A41G yielded a self-cleavage of 0.14.
In the case of C3A C23G G29A G44A, the self-cleavage is reported as 0.55.
For C3A A16G A26U U28G U32C U43C, the self-cleavage was 0.15.
